The whole screen tested about 370,000 compounds, of which about 500 (0.14%) were called active. This list was built around the results that the source calls inconclusive (neither active nor inactive); the mix of calls is not that of the screen. The call rests on the fitted dose curve; in most records, active means well fitted activation curve with a large enough effect; inconclusive means small, poorly fitted or top-dose-only effect; inactive means no such curve, though single readings can be large or run the other way. Where the call is inconclusive, the potency comes from a doubtful curve fit.
Assay: qHTS of alpha-syn Inhibitors; further: nearly all actives have a fitted effect of over 65% in size; on growth rescue (activation): % of control where 0% means no effect
Settings: Yeast expressing alpha-synuclein, BacTiter-Glo, 24 h; Potency: growth rescue unless noted; growth rescue (activation): at 46.1 µM (top of the series) unless noted
Text: The goal of this project is to identify new chemical probes capable of reversing the toxicity associated with the Parkinson disease-related protein, alpha-synuclein. Compounds will be selected on their ability to restore growth in yeast cells expressing toxic levels of alpha-synuclein. These compounds will provide a complementary approach to deciphering the tangled mechanisms of toxicity and protection that we have uncovered through genome-wide genetic screens and are beginning to uncover in a large-scale proteomics analysis with mass spectroscopy. To this end, a miniaturized assay was developed to be screened against the Molecular Libraries Small Molecule Repository (MLSMR) to discover alpha-synuclein inhibitors. Please note that in the set-up this yeast-based assay compounds that inhibit as alpha-syn, have a read-out as activators. NIH Chemical Genomics Center [NCGC] NIH Molecular Libraries Probe Centers Network [MLPCN] MLPCN Grant: NS060957 Assay Submitter (PI): Susan Lindquist, Whitehead Institute/MIT
Dispense 2.5 microL yeast galactose medium per 1536-well plate, pin compound, dispense 2.5 microL alpha-synuclein expressing yeast in galactose medium at OD600=0.02 (pregrown in raffinose medium to mid-log phase) per well, incubate for 24 hr at 30 deg C, and cell growth will be measured using 5 microL of Bactiter/Glo reagent to entire plate and read using Luminescence Protocol in ViewLux.
Potency means the concentration at half of the fitted maximal effect; tags describe the fitted curve by direction and shape.

Potency, inconclusive:
CCCCN1C(=O)C(O)(c2ccccc2)c2cc(Br)ccc21 (configuration not stated) 20 µM [activator, single point]
CC(C)CN1C(=O)c2ccccc2C1c1nnnn1-c1ccc2c(c1)OCCO2 (configuration not stated) 25.1 µM [activator, single point]
O=C(COC(=O)c1ccc(O)cc1)NCCC1=CCCCC1 35.5 µM [activator, single point]
CCSc1nnc(NC(=O)c2nc(-c3ccccc3)n(-c3ccccc3)n2)s1 31.6 µM [activator, single point]
[O-][n+]1ccc(CC(O)(C(F)(F)F)C(F)(F)F)cc1 5.62 µM [activator, single point]
CC(C)n1cc(/C=N/Nc2ccc(C(=O)O)cc2)c2ccccc21 20 µM [activator, single point]
O=c1cc(N2CCN(c3ccc(F)cc3)CC2)[nH]c(=O)n1Cc1ccc(F)cc1 5.62 µM [activator, single point]
CC1CCCN(C2(O)C(=O)Nc3ccc(Br)cc32)C1 (configuration not stated) 25.1 µM [activator, single point]
C=C(C)C(=O)OC1(C(F)(F)F)Oc2cc(C)ccc2NC1=O (configuration not stated) 28.2 µM [activator, single point]
CCN(CC)CCCOc1cc2nc(N3CCCN(C)CC3)nc(NC3CCN(C)CC3)c2cc1OC 28.2 µM [activator, single point]
CCCCN(C)S(=O)(=O)c1ccc(C(=O)Nc2nnc(CSC)o2)cc1 25.1 µM [activator, single point]
O=C(c1cccc(Cl)c1Cl)N(Cc1ccco1)Cc1cccs1 5.62 µM [activator, single point]
COc1ccc(S(=O)(=O)NCC(c2cccnc2)N2CCN(C)CC2)cc1C (configuration not stated) 5.62 µM [activator, single point]
Cc1ccc(C(=O)CC2(O)C(=O)N(CCc3ccccc3)c3ccc(Br)cc32)cc1 (configuration not stated) 25.1 µM [activator, single point]
C=CCCN([C@H](CO)Cc1ccccc1)S(=O)(=O)c1ccccc1Br 3.55 µM [activator, single point]
COc1cc(C)ccc1OCCOc1c(C)cccc1Cl 31.6 µM [activator, single point]
COc1ccccc1/C=C/C=N/NC(=O)Cc1cccs1 5.62 µM [activator, single point]
CCOc1ccc(/C=C2\SC(=O)N(c3ccc(O)cc3)C2=O)cc1OC 25.1 µM [activator, single point]
O=c1c2cccc3c2c(nn1CN1CCOCC1)-c1ccccc1-3 20 µM [activator, single point]
COC(=O)c1c(NC(=O)CS(=O)(=O)c2ccc(C)cc2)sc2c1CCCCC2 12.6 µM [activator, partial curve]
CCOc1ccc(C(C)=O)cc1COc1ccc(-c2nnco2)cc1 11.2 µM [activator, partial curve]
O=C(COc1ccc2c(c1)CCC2)NCc1ccc(Cl)cc1 3.16 µM [activator, single point]
CC(=O)NC(c1ccco1)c1ccc2cccnc2c1O (configuration not stated) 17.8 µM [activator, single point]
CCOC(=O)N1C=CC(C)=C[C@@H]2[C@@H](N3C(=O)c4ccccc4C3=O)C(=O)N21 31.6 µM [activator, single point]
CCOC(=O)/C(=N/Nc1ccc(C)cc1)S(=O)(=O)c1ccc(Cl)cc1 3.16 µM [activator, full curve, poor fit]
CC(=O)Nc1cc(-c2ccccc2N(C)C)cn2c(-c3cccc(C(F)(F)F)c3)cnc12 35.5 µM [activator, single point]
CC(=O)N1Cc2cc(C(=O)NCc3cccc(F)c3)nc(-c3cccc(C4=CCCC4)c3)c2[C@H]1CCO 5.62 µM [activator, single point]
CCC(OC(=O)c1ccco1)C(=O)NCc1ccc(C)cc1 (configuration not stated) 35.5 µM [activator, single point]
CC(C)(C)NC(=O)C(c1ccnc2ccccc12)n1c(=O)c(-c2cc3ccccc3[nH]2)nc2ccccc21 (configuration not stated) 12.6 µM [activator, partial curve]
O=C1CC(c2cccc(Br)c2)c2cc3c(cc2N1)CCC3 (configuration not stated) 3.98 µM [activator, single point]
COc1ccc(CNC(=O)c2cc3c(C)nc4ccccc4c3o2)c(OC)c1 35.5 µM [activator, single point]
COc1c(/C=N/Nc2ccc(C(=O)O)cc2)c(CCN(C)C(C)=O)cc2c1OCO2 35.5 µM [activator, single point]
O=C(/C=C/Nc1ccccc1)c1ccc(Oc2ncccn2)cc1 11.2 µM [activator, partial curve]
Cc1cc(C)c(S(=O)(=O)NCCn2ccc3ccccc32)c(C)c1 12.6 µM [activator, partial curve]
Cc1cc(C)c(S(=O)(=O)NCCc2cc3ccc(C)c(C)c3[nH]c2=O)c(C)c1 31.6 µM [activator, single point]
CCCCN(C(=O)c1ccc(-c2ccc([N+](=O)[O-])cc2)o1)c1c(N)n(CCCC)c(=O)[nH]c1=O 3.55 µM [activator, single point]
Cc1ccccc1OC1CCN(C(=O)c2cc(COc3ccccc3)on2)CC1 25.1 µM [activator, single point]
COC(=O)C(=Cc1ccncc1)c1cccc2ccccc12 31.6 µM [activator, single point]
O=C(N/N=C/c1ccc(N2CCOCC2)cc1)c1ccc(O)cc1 25.1 µM [activator, single point]
CCOC(=O)CCNC(=O)N1CCN(S(=O)(=O)c2ccc3c(ccn3C)c2)CC1 5.62 µM [activator, single point]
C[C@@H]1CN([C@@H](C)CO)C(=O)c2cc(N(C)C)ccc2O[C@@H](C)CCCCO[C@@H]1CN(C)S(=O)(=O)c1cccs1 35.5 µM [activator, single point]
Cc1ccccc1-n1ncc2c1CC(C)(C)CC2NC(=O)CCC1=NNC(=O)CC1 (configuration not stated) 35.5 µM [activator, single point]
COc1ccc(NC(=O)N(C)C[C@H]2OCc3cnnn3CCCC(=O)N([C@@H](C)CO)C[C@H]2C)cc1 15.8 µM [activator, single point]
CC(=O)N1c2ccc(S(=O)(=O)N3CCCC(C(=O)NCc4ccc(Cl)cc4)C3)cc2CC1C (configuration not stated) 35.5 µM [activator, single point]
O=C(NCc1ccco1)c1cnn2c1NC(c1ccc(Br)cc1)CC2C(F)(F)F (configuration not stated) 22.4 µM [activator, single point]
O=C(COc1ccc(Br)cc1)NCC1COc2ccccc2O1 (configuration not stated) 35.5 µM [activator, single point]
CC(C)c1cc(-c2cc(C(=O)NCc3ccccc3)on2)nc(NCC2CC2)n1 20 µM [activator, single point]

Potency, inactive:
Cc1c(C(=O)N2CCOCC2)[nH]c2c1C(=O)CC(c1ccc(Cl)cc1)C2 (configuration not stated)
COc1ccc(-n2c(C)c([N+](=O)[O-])c3ccc(O)c(CN(C)C)c32)cc1
Cc1ccc(C(C)C)c(OCC(=O)N/N=C/c2ccc(S(=O)(=O)O)o2)c1
COc1cc2c(cc1OC)-c1nnc(-c3ccco3)n1C1(CCCC1)C2
Cc1cc(F)ccc1S(=O)(=O)Nc1ccccc1C(=O)Nc1ccccc1-c1nc2ccccc2[nH]1
CN(C)c1ccc(C(=S)N2CCCCCC2)cc1
CN(C)c1ccc(N/C=C/C(=O)C(C)(C)C)cc1
Cc1cc(C(=O)COc2cccnc2[N+](=O)[O-])c(C)n1Cc1cccs1
COc1ccc(CN(CCCN)c2ccc(Br)cn2)cc1
CC(C)Sc1nc(N)c2c3c(sc2n1)CN(C)CC3
N=c1ccn2c(n1)OC1C(O)[C@@H](CO)O[C@H]12 (some centres not stated)
O=C(NC1CCCCC1)C1c2ccccc2OCC(=O)N1Cc1ccccc1 (configuration not stated)
COc1ccc(-c2cc(C(F)F)n3ncc(C(=O)N4CCN(C)CC4)c3n2)cc1
O=C(CCC1CCCCC1)NC1CCCCC1
Cc1ccc(S(=O)(=O)N[C@@H](Cc2ccccc2)C(=O)N2CCC(C(=O)N[C@@H](CCC(N)=O)C(=O)O)CC2)cc1
OCCc1ccc(O)c(-n2nc3ccccc3n2)c1
COc1ccc(Cl)c2sc(N3CCN(C(=O)c4ccco4)CC3)nc12
C=CCN(CC=C)c1ccc(/C=C/c2ccnc3ccccc23)cc1

Potency, active:
COc1ccc(C(=O)C(=O)N2CCC(c3ccccc3)CC2)cn1 15.8 µM

Growth rescue (activation), inconclusive:
Cc1nc2ccccc2n1/N=C/c1ccc([N+](=O)[O-])o1 -71% [activator]

Source: PubChem BioAssay AID652106 (National Center for Advancing Translational Sciences (NCATS), 2013)
